# In the supplement of paper PMC11417369:
# This is one part of the list.
# Tested on: PfHDP1 homeodomain (GST-tagged)
# Assay: gcPBM binding intensity (ln(normalized median fluorescence intensity)); higher = stronger DNA binding
# In short: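 DNA-binding domains from P. falciparum, fused to GST and produced in E. coli, were put on an Agilent 4 × 180k double-stranded probe array for 1 h in 1× PBS holding 1% milk, 0.2 mg/ml BSA, 0.5% salmon testes DNA and 0.03% Triton X-100. Probes were primer-extended, 36 bp long and drawn from intergenic genomic regions, with negative controls included. After Alexa488 anti-GST antibody detection and a 488 nm scan, binding intensity was set as the highest Masliner-normalised natural-log median intensity across replicate spots of either probe orientation.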
row,Sequence,gcPBM binding intensity (ln)
1,TATCTTCATTGTTGACGTACAGTATTTCTAAACGTT [XGTACX_site3439],6.45
2,TAAATATATATAACATGTACATAAAATATATATATA [XGTACX_site4431],8.09
3,AGGCCTTTTAGTATTTCACACACGTAAATGCGTATA [CACACA_site1108],6.26
4,TTTTTGTTAAAATAAATATTATAAATATATTAATAT [TGCATGCA_negctrl_site239],6.29
5,TACATATTTTATAGCACACAAATAATAATATGTAGT [CACACA_site688],6.5
6,AAAAAAAAAAAAATGTGGACACAATTGTGTGTTTGT [XGTACX_site3563],7.21
7,GTTGTGGAAAGAAGTTGTACATAAAATATTATATAA [XGTACX_site4352],6.5
8,CGAGCAAGACGGGGTGCACACAAACTAATATGCCGA [CACACA_site7936],9.58
9,TACCTTTATTAATAAAGTACATTAATCTGTGTATAC [XGTACX_site8720],6.4
10,ATTATTATGTAGAAGGTGCTATGTTCTATAAATATA [GTGCAC_site9545],6.28
11,CATAAAAATGAACATACACACATATATATATATATA [CACACA_site2498],9.29
12,TTGCTTTCTTTTTTTTGTACTCATATCTACTATCAT [XGTACX_site7711],7.38
13,ATATATATATATATATGTACATACCCAATTGTGTAA [XGTACX_site6352],9.15
14,ATTTAAAATGGTTATACACACATAAAAGGGGAAATG [CACACA_site2649],7.2
15,TACAGACATACATACACACATACATATATATATATA [CACACA_site1940],9.13
16,AAATATAAAAAAAAAAGTACTTTGTTACTTTTCTAT [XGTACX_site6034],5.71
17,TTTTTATTAAATAAAGCACACACAACAACTTTTCAC [CACACA_site9372],7.2
18,AACTGCAAAAAAAGACGTACAAATTATTAATTGCAA [XGTACX_site8929],6.5
19,AAAATAAATATAACCACACACGAAAGAGAGAGAAAA [CACACA_site3272],6.73
20,TAACCATAAGAAGATTGTACATAATAAAAGTATTCT [XGTACX_site1117],6.31
21,ATCGAAGGGGTACAAAATAAAAATAATTCTTTCAAA [TGCATGCA_negctrl_site373],6.23
22,GTATATATCTAAAAATATATATATATATATATATAT [CACACA_negctrl_site788],9.51

row,Sequence,gcPBM binding intensity (ln)
1,AAGTGTTATGAAATATGTACACATATATTATATATA [XGTACX_site6022],6.56
2,TATAAATAAATATGGAGTACCAAAAAAATTATAAAA [XGTACX_site7581],6.21
3,ATACAAATTAAGCCTCAAGTTCTTTTTTTTAACATA [XGTACX_negctrl_site580],6.23
4,ATATAACATGGACACACACACATATATATATATTAT [CACACA_site6135],7.06
5,GGTGCACCCATATACACACACAAATACAATGATAAA [CACACA_site1132],10.2
6,AAAAAAAAGAATTATTGTACAAAAGAACAATAAATA [XGTACX_site1368],6.05
7,GTGAAATTATATTTTTGTACATATATTATATATTAT [XGTACX_site3387],6.54
8,ATACAAAATCTAATTTGTACACAATGTTTGATTTTT [XGTACX_site5438],6.17
9,TACAAATGAGAAATATGTACATAAAAAAAAAAAAAT [XGTACX_site801],6.85
10,TTGTTCTTTCAAATTATACACACCAAAAAAAAAAAA [CACACA_site3070],6.51
11,AATATAAATAAAAAATTGATTTCTTTAAAAAGGTAT [CACACA_negctrl_site1038],6.14
12,TAATCATAAAAAAATACACACATATATAATATATAT [CACACA_site1983],6.75
13,TTCTTTTTTTTTAAAACAAACAAACAAACAAACAAA [CACACA_negctrl_site832],6.6
14,TATTTATTTATTTAGTGTACATTTATATTTGTTCAT [XGTACX_site7575],6.87
15,TTAATCTTTCCTACATGTACACACAGAAAAAAAAAA [XGTACX_site5213],6.57
16,TATCCATATTTGTTCACACACACACCCATTTATATA [CACACA_site3571],7.13
17,ATTTTTATGTTGAAAAGTACTTGAATCCCATGTAAC [XGTACX_site4453],6.3
18,TTATTTTTTTTGTGTTGTACAATTTATTACTACTAA [XGTACX_site346],6.88
19,AATATATTTTAATATACACACATATATGCTCTTTAA [CACACA_site9371],6.85
20,TTATTTATGTGTAGGGCATGCAATCGTGTTTTTAAA [TGCATGCA_site735],8
21,GTATTTATAATACGGCGTACATAAAAAAAAAAAAAA [XGTACX_site3705],6.48
22,AAACAAATATGTAGCACACATTCACATAATATATTT [CACACA_site2335],7.01

row,Sequence,gcPBM binding intensity (ln)
1,AAAGAAAGTACCTTCACACATATAAGAATATAATAT [CACACA_site5214],6.41
2,AAAAAAAAAATATATTGTACAAATAGATATGTCAAT [XGTACX_site122],6.66
3,TGAAATACGAATTATTGTACTTATGTGTAAGATGGC [XGTACX_site4472],6.93
4,ATTCATTTACCAATGGTGCAATATATTTTTATAATG,10.3
5,TGTCAAAATATGTATACACACAATTTTTTTTTTTTT [CACACA_site2465],6.61
6,TTTTTCATAAGAAGCACACAAAAAATGATAGAGAAT [CACACA_site1417],7.39
7,TAATAAATAAAATAGAGTACAGGGATTTCATTAAAT [XGTACX_site8979],6.84
8,TATATTACTTATATTTGTACACAGAAATATAAATCA [XGTACX_site13],6.32
9,TAATATGCATAAAATTGTACAAACTTACATATAATA [XGTACX_site2752],6.74
10,TTTTTTATAGGACATGCATGTTGTAGAGCTGTATAT [TGCATGCA_site704],7.09
11,TTCATAGAATTATATATTTTAAAAAAAAAAATAATT [CACACA_negctrl_site175],5.78
12,AATATATTTGTGTATGTGCGCAGTGTGTAATTTATT [GTGCAC_site9765],7.92
13,CATCTCATATTTTGAAGTACTAAGAAAAGATATAAA [XGTACX_site6867],6.57
14,ACGTAATTAATTCATCAGATATAATTAATAATAATA [XGTACX_negctrl_site550],6.42
15,ACTAAAGTGTATCACTGTACAATTCTTCTCTTTTTT [XGTACX_site8705],6.59
16,ATAAATTTTTTTTTTTTTTTTTTTCTTTTTCTTTGT [CACACA_negctrl_site1231],5.63
17,AAAAAAAAAAAAAAAAGTACACAGTAGAATTAAATG [XGTACX_site1843],6.39
18,GAACAATAAATAAAAAAAATAAAAATAAAAATAAAA [TGCATGCA_negctrl_site35],6.41
19,ATAAGTAAATTAGATACACACATGATATCATACATA [CACACA_site1623],6.43
20,TTTTTTTTTTAATTAACACACATAAATATATATATA [CACACA_site3275],8.11
21,TCAATAATAACAAATGAACACACATATATATGAGCA [CACACA_site8663],6.52
22,AGAAAAAAATAATGTACACACACATAGATGTTTATA [CACACA_site4271],6.28

row,Sequence,gcPBM binding intensity (ln)
1,ATAAAACAAATGAGTACACACACATAAAAATTGAAA [CACACA_site7949],6.67
2,TCCTCTTATAATTCGTGTCCACATATATCATACAAT [XGTACX_site1523],7.13
3,AAAAAATACATACATACACACATATATATATATATA [CACACA_site913],9.37
4,TACGGATATATATATTGTACATATATATAATATATA [XGTACX_site3156],6.67
5,TATATATATATTAATAGTACATATTATGTAAGCCTA [XGTACX_site2826],8.21
6,TTTTTTTTTTTTTTTGTGCACAATATAATTTTTAAT [GTGCAC_site9747],10.8
7,CATCATATAAATTCAAGTACAAGAAAAAGTAATATA [XGTACX_site2383],6.59
8,TAAATAAAGATATATACACACATATTTATATTTATA [CACACA_site6431],6.31
9,AAATAATTTTTATTTGTACACACATACATATATATT [CACACA_site8240],6.56
10,ATATCTACTTTTTTATGTACGAAAAAAATACGGATT [XGTACX_site8937],6.41
11,ACAAAATTGAAATTCACACAAAAACTATACTTTTTA [CACACA_site4638],6.03
12,TATGATATAATATACACACATACATATATATATATA [CACACA_site510],9.06
13,TTATTCATAAAAACAAAAAACAAAAATGAAATAGGA [CACACA_negctrl_site1123],6.83
14,TTAATATTTTATTTCACACACATAAATGCCCCAAAC [CACACA_site1887],7.49
15,AGAGTTCTCCTATGCACACAAAAAACTTTCATTTAT [CACACA_site4193],9.41
16,TATTATGTCTAAAATAACATATTAATATATTATTTC [CACACA_negctrl_site285],6.2
17,AATAAAAAAAAAAAAAAAAAAAAAAACCTGAGGAGT [CACACA_negctrl_site1140],5.96
18,AACCTTTTAAGAGTTGCACACGTACAAAAAAAAAAA [CACACA_site9159],8.18
19,TTTAAGCAAAGACACACACACATATTTATATTTATA [CACACA_site6295],6.58
20,AAACATTTATACAAAGCACACAATTTTTAACTTTTA [CACACA_site2627],6.3
21,TTTCAGACAAAAAAAAAAAAAAAAAAGAGGAGAATA [CACACA_negctrl_site254],5.94
22,TATATTAAACAATATACACACATTAATGTAGACATA [CACACA_site8889],6.72
